Source: the supplement of paper PMC3334620
Whole data set: some 33,000 sequences, median “E-score (-0.5 to 0.5)” near -0.032, cut for the highest 2% near 0.36. This is one part of the list.

Molecular target: T1, Sko1 (UniProt Q02100)
T1 sequence: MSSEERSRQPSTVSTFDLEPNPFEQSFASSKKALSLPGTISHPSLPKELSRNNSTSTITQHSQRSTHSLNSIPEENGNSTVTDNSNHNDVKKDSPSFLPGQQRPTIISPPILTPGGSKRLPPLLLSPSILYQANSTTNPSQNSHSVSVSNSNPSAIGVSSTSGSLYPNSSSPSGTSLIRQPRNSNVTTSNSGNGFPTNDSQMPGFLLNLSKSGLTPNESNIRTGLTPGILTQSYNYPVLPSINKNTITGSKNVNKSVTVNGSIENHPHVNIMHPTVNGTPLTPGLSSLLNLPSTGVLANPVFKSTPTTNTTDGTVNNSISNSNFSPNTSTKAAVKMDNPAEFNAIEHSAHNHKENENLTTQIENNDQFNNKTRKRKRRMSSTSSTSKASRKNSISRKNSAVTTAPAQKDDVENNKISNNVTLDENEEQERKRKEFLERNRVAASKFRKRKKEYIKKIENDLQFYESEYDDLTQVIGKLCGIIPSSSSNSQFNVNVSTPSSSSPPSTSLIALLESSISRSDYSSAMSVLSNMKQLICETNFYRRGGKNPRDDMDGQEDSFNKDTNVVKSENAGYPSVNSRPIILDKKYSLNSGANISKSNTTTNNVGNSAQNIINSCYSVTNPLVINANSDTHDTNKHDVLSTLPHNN
Experiment: PBM E-score (8-mer binding enrichment) (E-score (-0.5 to 0.5)); higher = stronger / more preferred TF binding; most listed sequences are background and not binding sites
Conditions: protein concentration: 200 nM; construct: GST-full length
Procedure: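 Universal 'all 10-mer' protein binding microarrays (Agilent AMADID 015681) probed with GST-tagged S. cerevisiae TFs (full-length or DBD) made by in vitro transcription/translation (PURExpress), about 100-200 nM. Bound TF was detected with fluorescent anti-GST. Each ungapped 8-mer (which stands for itself and its reverse complement) is scored by the PBM enrichment score (E-score), a modified Wilcoxon-Mann-Whitney statistic from -0.5 to +0.5, computed with the Universal PBM Analysis Suite. Scale: above 0.35 generally sequence-specific binding.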

Point of comparison: CCACCGGC, “PBM E-score” value -0.255. Against it:
- CCTCCTTC — lower, -0.269
- ACAGCGCA — higher, -0.225
- ATCCGGCG — higher, -0.054
- ATACGGAT — higher, 0.111
- GGACTGCC — lower, -0.309
- ATTAGCAC — higher, 0.0376
- CCGACCGA — lower, -0.283
- CTACCCCC — lower, -0.391
- GAGCCGCA — higher, -0.105
- CGAATTGC — higher, 0.0603
- AGGTACCG — higher, -0.0121
- GGACTATA — higher, -0.0152
- GAATCTGC — higher, -0.17
- TCGCGGAA — lower, -0.277
- ACCCCTTC — higher, -0.152
- CATCGCCG — higher, -0.137
- GATTTTGC — higher, -0.146
- GCGACACC — higher, -0.144
- CGTCTTTA — higher, 0.253
- CCCTTGCC — lower, -0.337
- ATTCTTAA — higher, 0.0641
- CCGGGAAC — higher, -0.211
- CAGCACTC — higher, -0.0266
- ATCGGGTC — higher, -0.147
- GCGAGAGA — higher, -0.16
- CGTTAGAG — higher, -0.0197
- ATGTGGTA — higher, 0.133
- ACCTCCAC — higher, -0.11
- GAGGACAC — higher, -0.0881
- ACTGATCT — higher, 0.169
- GCTATCCA — higher, -0.145
- ACATGCGA — higher, 0.04
- GCGGCAAC — higher, -0.0548
- TCGTCAGA — higher, 0.307
- GGCGAGGA — higher, -0.222
- AGGATAGG — higher, -0.198
- GAGTTATA — higher, 0.0198
- CCCTTTTA — lower, -0.281
- GCCATACC — lower, -0.259
- CGGACTAG — lower, -0.293
- AGTCCTGC — higher, -0.185
- CTGAGCAC — higher, -0.171
- CCCCCTGC — lower, -0.29
- AACTATCT — higher, -0.0231
- GAGGTACA — higher, 0.00532
- AAGGGGTC — higher, -0.0371
- GCAGACGC — higher, -0.107
- CTCGTCGA — higher, 0.0276
- GCCTCCCC — higher, -0.19
- AACTGAAT — higher, -0.0415
- GTAATCAA — higher, 0.228
- CTATTCGC — higher, -0.0146
- AGGGTGAG — higher, -0.207
- CAACTTGG — higher, 0.0671
- CGACATTC — higher, 0.165
- AGAGTACT — higher, -0.0858
- ATATCCTC — higher, -0.115
- AGGGTGAC — higher, 0.184
- GACCTTAA — higher, -0.0623
- CTATATCC — higher, -0.146
- CGGCAAGC — higher, -0.0636
- ATTCATAA — higher, 0.156
- CCGCACAG — higher, -0.225
- CTCGTGCC — lower, -0.27
- AGGCAATG — higher, 0.00123
- CCCTGGCG — higher, -0.112
- CCATGACA — higher, 0.163
- CTGCTGGA — higher, -0.159
- CAGTATCG — higher, -0.1
- ACAAGCCA — higher, -0.187
- ACCTATTA — higher, 0.141
- ATAAACTC — higher, 0.102
- GAAGTCCC — lower, -0.334
- GACGGGAA — higher, 0.0248
- AGATTTCG — higher, 0.114
- CATTTCTA — higher, 0.0296
- AGAGTTGA — higher, -0.0236
- GAACCCAC — higher, 0.0247
- TGTACCAA — higher, 0.185
- ACCGGCCG — higher, -0.205
- ATGATACG — higher, 0.339
- CTCTGGCC — higher, -0.173
- GTGACCAA — higher, 0.0721
- ATTGGCTA — higher, -0.00448
- CTTTATCC — higher, -0.0554
